# Reference: the supplement of paper PMC4166925
# ± gives the standard deviation of the averaged measurements. Whole data set: some 33,000 sequences, median “E-score (dimensionless, -0.5 to 0.5)” near -0.049, cut for the highest 2% near 0.37. This is one part of the list.
# Tested on: T1, PmTbr T-box DNA-binding domain (GST fusion)
# T1 sequence: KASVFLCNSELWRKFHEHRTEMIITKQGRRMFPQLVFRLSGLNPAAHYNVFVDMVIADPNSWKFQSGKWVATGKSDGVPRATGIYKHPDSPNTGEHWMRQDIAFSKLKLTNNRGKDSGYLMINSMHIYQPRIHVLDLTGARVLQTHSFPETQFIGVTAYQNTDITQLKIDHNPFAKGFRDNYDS
# Assay: PBM E-score of 8-mer (E-score (dimensionless, -0.5 to 0.5)); Tbr is Tbrain of the sea star Patiria miniata (Pm) or the sea urchin Strongylocentrotus purpuratus (Sp); higher = stronger binding preference; most listed sequences are background and not binding sites
# Conditions: the construct has about 5 more residues each side
# Protocol: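 Universal protein-binding microarray (Agilent AMADID 016060, 60-bp probes with a 35-bp variable region) incubated with 200 nM GST-fused Patiria miniata Tbr T-box DNA-binding domain (residues 272-466) in PBS pH 7.5. Scored for every ungapped 8-mer (given with its reverse complement) by the Universal PBM Analysis Suite as E-score (modified Wilcoxon-Mann-Whitney enrichment, range -0.5 to 0.5; >0.45 counts as bound) and Z-score of median probe intensity. Two replicate arrays (datasets 1 and 2).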
# 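Also: 200 nM protein in PBS on universal arrays averaged over duplicate arrays.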
row,Sequence,PBM E-score of 8-mer
1,AGCTCTGG,-0.121 ± 0.14
2,ATGCTAAC,0.0631 ± 0.061
3,ACTCCGAC,-0.0585 ± 0.0096
4,AGACCGCT,-0.0767 ± 0.028
5,CCACCTAA,0.146 ± 0.058
6,CTCAGAAG,-0.162 ± 0.0033
7,ACGGGTGG,0.0219 ± 0.074
8,CATAACAA,0.0483 ± 0.038
9,AACGGAGC,0.00505 ± 0.0014
10,CCCCGTAC,-0.0367 ± 0.049
11,GGCTGCCA,0.124 ± 0.029
12,CACACGTC,0.4359 ± 0.0027
13,AAGTCACT,-0.056 ± 0.057
14,CAGATGTC,-0.0861 ± 0.049
15,ACTCCCGG,-0.111 ± 0.059
16,CCTCCCTA,-0.0941 ± 0.083
17,CTCAGCTC,-0.0697 ± 0.016
18,GATGGAGA,-0.177 ± 0.055
19,ATGACAGC,0.0891 ± 0.025
20,GAGGAAGC,-0.0945 ± 0.037
21,ACGGGGCC,-0.169 ± 0.023
22,CTTTAAGC,-0.207 ± 0.0037
23,CTCGATCC,-0.201 ± 0.07
24,CTCTACCC,-0.178 ± 0.056
25,AAGATCTC,0.061 ± 0.054

row,Sequence,PBM E-score of 8-mer
1,GGGAACAC,0.196 ± 0.023
2,AATACTAG,-0.0965 ± 0.039
3,CGACCAAC,0.00547 ± 0.043
4,AGACACCG,0.185 ± 0.012
5,ACCCATGC,-0.00508 ± 0.025
6,TCATCAGA,0.0324 ± 0.023
7,GGTGGTAC,0.2008 ± 0.0013
8,AACCAACG,0.0666 ± 0.046
9,TATTTCGA,0.061 ± 0.0057
10,GGTGAGTA,0.161 ± 0.095
11,AGCAGCGC,-0.00444 ± 0.031
12,AGTAGCAA,0.05 ± 0.025
13,CAAAACCC,-0.00717 ± 0.06
14,CCAGCGTC,0.0729 ± 0.014
15,CACTCATC,0.144 ± 0.018
16,CGCGCCAC,0.311 ± 0.013
17,AGACCCAA,-0.13 ± 0.028
18,GTGGAAAA,-0.0396 ± 0.017
19,GTGCGAAA,0.4814 ± 0.0014
20,AGACCACG,-0.117 ± 0.06
21,AAACAAGA,-0.26 ± 0.028
22,AGGACTTC,-0.126 ± 0.085
23,CATCTTCG,-0.00766 ± 0.071
24,GTCACTGA,0.102 ± 0.0023
25,ACATGCCT,-0.23 ± 0.07

row,Sequence,PBM E-score of 8-mer
1,ATTCTGAG,-0.131 ± 0.012
2,TATTGTCA,0.247 ± 0.063
3,ATTTCACA,0.426 ± 0.013
4,ACCGCCGA,0.013 ± 0.028
5,CTTACAAA,-0.206 ± 0.034
6,CGCGATCC,0.174 ± 0.033
7,GACAATGC,0.141 ± 0.0033
8,GAGATCCA,0.0448 ± 0.055
9,ACACGAAA,0.00596 ± 0.031
10,ACGGTGCG,0.309 ± 0.042
11,GTCAATTA,0.0505 ± 0.064
12,TAGTTATA,-0.136 ± 0.053
13,AGAGATTC,-0.0734 ± 0.013
14,GGCAACAA,0.05 ± 0.0035
15,AATTCCGA,-0.0769 ± 0.11
16,AGATCTGG,-0.0878 ± 0.0096
17,CAGTCAGA,-0.202 ± 0.038
18,CCGTATAA,-0.051 ± 0.054
19,CCGGGGGC,-0.17 ± 0.076
20,ACAGAGCT,-0.185 ± 0.011
21,GACTATAC,-0.22 ± 0.0026
22,ACGTTTTA,-0.0207 ± 0.11
23,TACCTTAA,-0.0928 ± 0.11
24,ACAAATAG,0.0659 ± 0.036
25,CCCGTTTA,-0.0803 ± 0.023

row,Sequence,PBM E-score of 8-mer
1,CACCCCAA,0.212 ± 0.061
2,AAATCGTT,-0.182 ± 0.0032
3,CCCTGCCA,0.0151 ± 0.031
4,CCAGGCAG,-0.0508 ± 0.1
5,GGTATTGA,-0.0741 ± 0.0033
6,AATACACT,-0.0504 ± 0.12
7,GCCTTTAC,-0.163 ± 0.021
8,GGTCTATA,-0.295 ± 0.034
9,GTTGGGCA,0.0207 ± 0.14
10,CTTGCCAC,0.285 ± 0.0097
11,AGTGCTTA,-0.00539 ± 0.017
12,AGTGGGCC,-0.0657 ± 0.11
13,GTGTAAAA,0.341 ± 0.081
14,CTCCTATC,-0.0475 ± 0.024
15,ATGCGGGA,-0.203 ± 0.036
16,ATTTTAAA,-0.142 ± 0.01
17,AAGTAGGT,0.196 ± 0.023
18,CGGATTGC,-0.0928 ± 0.0017
19,AGCGCAAC,-0.048 ± 0.051
20,CACTTCAC,0.396 ± 0.012
21,ATGTTCTG,-0.239 ± 0.034
22,CCATTCCG,-0.0325 ± 0.04
23,TCAAACAA,-0.149 ± 0.021
24,CTTTGAAC,-0.124 ± 0.068
25,AAGTCAAG,-0.0506 ± 0.0047

row,Sequence,PBM E-score of 8-mer
1,GCATTAGC,0.2357 ± 0.0015
2,CGGTCGAA,-0.207 ± 0.015
3,ATTCTCCC,-0.298 ± 0.045
4,GGACCTCC,-0.342 ± 0.023
5,CAGTCTGA,-0.167 ± 0.034
6,GGGTACCA,0.0554 ± 0.01
7,ATCGCCTA,0.126 ± 0.056
8,ACAGAGTA,0.0142 ± 0.0068
9,GAGAAATA,0.0157 ± 0.063
10,AATAAGGC,-0.103 ± 0.017
11,ATCCAGAA,-0.124 ± 0.038
12,ATTAAGAA,-0.301 ± 0.0034
13,AGACAACG,0.0232 ± 0.016
14,CGGATGAG,-0.151 ± 0.044
15,ACGGTAGA,-0.125 ± 0.024
16,AATTATAC,-0.0508 ± 0.085
17,AAAAGAGA,0.11 ± 0.028
18,CCTACACA,-0.00547 ± 0.098
19,ACCCATCG,0.0896 ± 0.017
20,ACTTTGCG,0.156 ± 0.028
21,ATGAGCAG,-0.0322 ± 0.034
22,ACCATCCG,-0.186 ± 0.022
23,TCAGCTGA,-0.191 ± 0.084
24,ATGCCGGG,-0.225 ± 0.029
25,AACTTTGC,0.12 ± 0.062

row,Sequence,PBM E-score of 8-mer
1,CGAGTTTA,0.157 ± 0.045
2,GTTGCTTA,-0.148 ± 0.055
3,AACATCCG,-0.0527 ± 0.016
4,GCGTGTTA,0.336 ± 0.036
5,AAACCGAA,-0.0831 ± 0.077
6,CCAAATTA,-0.086 ± 0.049
7,CCCTAACG,-0.0582 ± 0.031
8,CCACTTTA,0.0964 ± 0.014
9,CTGAGGTA,-0.0413 ± 0.017
10,ACACATAT,0.386 ± 0.0052
11,CACTAAGG,0.0849 ± 0.023
12,CAATGACC,-0.18309 ± 5.7e-05
13,GCGTGATA,0.329 ± 0.01
14,AATAGCCG,-0.0594 ± 0.04
15,AAAGTGCC,0.199 ± 0.067
16,CATTGTTC,-0.175 ± 0.0042
17,GCTATTGA,0.00989 ± 0.062
18,ACAGTGCA,-0.1063 ± 0.00079
19,CACGGATA,-0.0652 ± 0.11
20,ACTTCATA,-0.0573 ± 0.087
21,CTGCCAGC,0.0368 ± 0.011
22,CCAGAGTA,-0.0866 ± 0.053
23,ACTGCAAG,-0.124 ± 0.14
24,GGAGAGTA,-0.153 ± 0.048
25,TCTTAGAA,-0.0982 ± 0.088

row,Sequence,PBM E-score of 8-mer
1,CACTTATA,0.193 ± 0.0034
2,ACTTTTGA,-0.0571 ± 0.043
3,ACCATCGC,0.216 ± 0.014
4,ACAATACG,-0.058 ± 0.035
5,ACACACTG,0.138 ± 0.019
6,CGACTTCA,-0.0422 ± 0.013
7,AGGATTGG,-0.109 ± 0.04
8,CCCAACCG,-0.107 ± 0.006
9,CACAAGTA,0.065 ± 0.01
10,AGAAGCAA,-0.207 ± 0.0053
11,AACCGCTC,-0.157 ± 0.039
12,AGAGATCG,0.0683 ± 0.06
13,CATGTAAG,0.0322 ± 0.026
14,CTAAGGCC,-0.196 ± 0.045
15,AATCCACT,-0.272 ± 0.041
16,GCCTCGCA,0.143 ± 0.014
17,CCGAGGAA,-0.297 ± 0.015
18,ACGTGTCT,0.198 ± 0.0036
19,AATATAGG,-0.1 ± 0.024
20,CGTGGGAC,0.0231 ± 0.021
21,CTGGCTCA,0.0686 ± 0.056
22,TCGAACAA,-0.125 ± 0.059
